# Reference: PubChem BioAssay AID938 (National Center for Advancing Translational Sciences (NCATS), 2007)
# In all, about 73,000 compounds went through this assay and about 1,800 (2.5%) were called active. Inconclusive results, whose numbers are uncertain, are shown with a selection of clear calls. The call rests on the fitted dose curve; in most records, active means well fitted activation curve with a large enough effect; inconclusive means small, poorly fitted or top-dose-only effect; inactive means no such curve, though single readings can be large or run the other way. No potency is given beside an inconclusive call; the fits are too rough. Some compounds were tested as several samples or in several runs, with calls that do not always agree.
# Test: qHTS Assay for Agonists of the Thyroid Stimulating Hormone Receptor: Activators of Intracellular cAMP Concentrations in Parental HEK 293; further: nearly all actives have a fitted effect of over 55% in size; on activation: % of control where 0% means no effect
# Settings: parental HEK293 CNG cAMP sensor, membrane potential fluorescence; activation: at 57.1 µM (top of the series) unless noted
# How it was run: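 Parental HEK 293 cells stably expressing a cAMP-gated CNG channel were loaded with membrane potential dye containing 100 uM RO 20-1724 for 60 min. Compound added for 30 min; depolarization read as fluorescence intensity at 590 nm.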
# Potency means the concentration at half of the fitted maximal effect; tags describe the fitted curve by direction and shape.
Structure (SMILES),activation,Potency
O=C(CSc1nnc(-c2cc3ccccc3cc2O)n1Cc1ccco1)c1ccc(F)cc1,inactive: 32.7%,
Cc1ncoc1C(=O)Nc1ccccc1C(N)=O,inactive: 17.8%,
CC1CCCN(C(=O)C2c3ccccc3C(=O)N3CCc4ccccc4C23)C1 (configuration not stated),,"inconclusive [activator, partial curve]"
CCN(CC)S(=O)(=O)c1cc(C(=O)OC)ccc1Cl,,"inconclusive [activator, partial curve]"
Cc1onc(-c2ccccc2Cl)c1C(=O)OCN1C(=O)c2ccccc2C1=O,,"inconclusive [activator, single point]"
CC(C)C[C@@H](CC(=O)N[C@@H](CCCN)CC(=O)N[C@@H]1CCCC[C@H]1C(=O)N[C@H](CC(=O)N[C@@H](CCC(=O)O)CC(=O)O)Cc1ccccc1)NC(=O)[C@@H]1CCCC[C@H]1N,,"inconclusive [activator, single point]"
CCCC(C)C(=O)Nc1cccc(NC(C)=O)c1 (configuration not stated),,"inconclusive [activator, partial curve, poor fit]"
COc1cccc(OC)c1OCCNC[C@@H]1CSc2ccccc2O1,,"inconclusive [activator, full curve]"
Cc1ccc(Cn2ccc(NC(=O)c3cc(-c4cccc(Cl)c4)on3)n2)cc1,,"inconclusive [activator, full curve]"
O=C(c1ccco1)N(Cc1cccs1)C1CCS(=O)(=O)C1 (configuration not stated),,"inconclusive [activator, partial curve]"
COCCn1c(=O)c(CCc2ccccc2)nc2cnc(N3CCN(C)CC3)nc21,,"inconclusive [activator, partial curve]"
O=C(O)c1ccccc1NS(=O)(=O)c1ccc(Cl)c(Cl)c1,inactive: -4.56%,
Brc1ccc(-c2nn3c(Cc4ccccc4)nnc3s2)o1,,"inconclusive [activator, single point]"
COc1cc(OC)cc(-n2nnnc2SCC(=O)N2CCCc3ccccc32)c1,,"inconclusive [activator, partial curve]"
CC12CC(c3ccccc3O1)C(C(=O)NCc1ccccc1)C(=O)N2 (configuration not stated),inactive: 6.5%,
Cc1cc(C)nc(Sc2nc(C)nc3c2oc2ccccc23)n1,inactive: 3.04%,
CCOC(=O)N1CCN(C(=O)c2cc(-c3ccc(OCC)cc3)nc3ccccc23)CC1,inactive: 17.3%,
CN(Cc1ccco1)c1ncncc1-c1ccccc1C(F)(F)F,,"inconclusive [activator, partial curve]"
CCOC(=O)c1c(CN2CCCCC2)n(C)c2cc(Br)c(OC)cc12,,"inconclusive [activator, full curve]"
Cc1cccc(Nc2ncc3c(n2)CC(c2ccco2)CC3=O)c1 (configuration not stated),,"inconclusive [activator, single point]"
CCCc1cc(=O)oc2cc3oc(C)c(C)c3cc12,,active: 25.1 µM

Structure (SMILES),activation,Potency
NC(N)=NC(N)=Nc1ccccc1 (tested in a mixture with another compound),inactive: -0.982% [at 11.4 µM],
Cc1ccc2c(c1)NC(=O)C(CC(=O)NCCCN1CCN(C3CCCCC3)CC1)O2 (configuration not stated),inactive: -2.02%,
CN[C@@H](CC(C)C)C(=O)N[C@@H]1C(=O)N[C@H](CC(N)=O)C(=O)N[C@H]2C(=O)N[C@H]3C(=O)N[C@H](C(=O)N[C@H](C(=O)O)c4cc(O)cc(O)c4-c4cc3ccc4O)[C@H](O)c3ccc(c(Cl)c3)Oc3cc2cc(c3O[C@@H]2O[C@@H](CO)[C@@H](O)[C@@H](O)[C@H]2O[C@H]2C[C@](C)(N)[C@H](O)[C@H](C)O2)Oc2ccc(cc2Cl)[C@@H]1O,,"inconclusive [activator, single point]"
O=C(CN(c1ccccc1F)S(=O)(=O)c1ccccc1)N1CCCCCC1,,"inconclusive [activator, single point]"
N#Cc1nc(COc2ccccc2)oc1N1CCN(Cc2ccccc2)CC1,,active: 12.6 µM
CC(C)(C)c1ccc(-c2nc(C#N)c(NCc3ccncc3)o2)cc1,inactive: -4.68%,
O=C1C(SCCO)=C(SCCO)C(=O)c2ccccc21,,active: 25.1 µM
COc1ccc(Nc2nc3c(c(=O)n(C)c(=O)n3C)n2CCO)cc1,,"inconclusive [activator, single point]"
CCOC(=O)c1c(NC(=O)CSc2nnc(-c3ccccc3)n2CC)sc(C(C)=O)c1C,,"inconclusive [activator, single point]"
O=C(c1cccs1)N1CCC(c2nc3ccccc3s2)CC1,,"inconclusive [activator, full curve]"
Cc1nn(C(C)(C)C)c(OC(=O)c2ccc3c(c2)OCO3)c1S(=O)(=O)c1ccccc1,,"inconclusive [activator, partial curve]"
NC(=O)c1cc(S(=O)(=O)Nc2cccc(F)c2)co1,,"inconclusive [activator, single point]"
Cc1cccc(CNc2cc(-c3cccc(C#N)c3)ncn2)c1,,"inconclusive [activator, single point]"
CC(=O)c1cc2c(cc1NC(=O)C1CC=CCC1C(=O)O)OCO2 (configuration not stated),,"inconclusive [activator, single point]"
CCCC/C=C/C(NC(=O)C(C)(C)C)c1ccccc1 (configuration not stated),,active: 25.1 µM
C=CCOC(=O)c1[nH]c2c(c1C)C(=O)CC(c1ccco1)C2 (configuration not stated),,"inconclusive [activator, full curve]"
CCOc1ccc(C2C(C#N)=C(N)SC(N)=C2C#N)c(OCC)c1,inactive: 7.82%,
Cc1csc(SCC(=O)Nc2cccc3nsnc23)n1,,active: 20 µM
Brc1ccc(-c2nnc(-c3ccccc3Br)o2)cc1,,"inconclusive [activator, single point]"
CC(C)(C)n1ncc2c(=O)n(CC(=O)c3ccc(Cl)cc3)cnc21,,"inconclusive [activator, partial curve]"
COc1ccc(CCNC(=O)Cn2c(=O)n(Cc3ccco3)c(=O)c3ccc(Cl)cc32)cc1OC,,"inconclusive [activator, partial curve]"
